Whole data set: some 33,000 sequences, median “E-score (-0.5 to 0.5)” near -0.021, cut for the highest 2% near 0.32. This is one part of the list.
target: T1, Zap1 (UniProt P47043); test: PBM E-score (8-mer binding enrichment) (E-score (-0.5 to 0.5)); higher = stronger / more preferred TF binding; most listed sequences are background and not binding sites; settings: protein concentration: 200 nM; construct: GST-full length
T1 sequence: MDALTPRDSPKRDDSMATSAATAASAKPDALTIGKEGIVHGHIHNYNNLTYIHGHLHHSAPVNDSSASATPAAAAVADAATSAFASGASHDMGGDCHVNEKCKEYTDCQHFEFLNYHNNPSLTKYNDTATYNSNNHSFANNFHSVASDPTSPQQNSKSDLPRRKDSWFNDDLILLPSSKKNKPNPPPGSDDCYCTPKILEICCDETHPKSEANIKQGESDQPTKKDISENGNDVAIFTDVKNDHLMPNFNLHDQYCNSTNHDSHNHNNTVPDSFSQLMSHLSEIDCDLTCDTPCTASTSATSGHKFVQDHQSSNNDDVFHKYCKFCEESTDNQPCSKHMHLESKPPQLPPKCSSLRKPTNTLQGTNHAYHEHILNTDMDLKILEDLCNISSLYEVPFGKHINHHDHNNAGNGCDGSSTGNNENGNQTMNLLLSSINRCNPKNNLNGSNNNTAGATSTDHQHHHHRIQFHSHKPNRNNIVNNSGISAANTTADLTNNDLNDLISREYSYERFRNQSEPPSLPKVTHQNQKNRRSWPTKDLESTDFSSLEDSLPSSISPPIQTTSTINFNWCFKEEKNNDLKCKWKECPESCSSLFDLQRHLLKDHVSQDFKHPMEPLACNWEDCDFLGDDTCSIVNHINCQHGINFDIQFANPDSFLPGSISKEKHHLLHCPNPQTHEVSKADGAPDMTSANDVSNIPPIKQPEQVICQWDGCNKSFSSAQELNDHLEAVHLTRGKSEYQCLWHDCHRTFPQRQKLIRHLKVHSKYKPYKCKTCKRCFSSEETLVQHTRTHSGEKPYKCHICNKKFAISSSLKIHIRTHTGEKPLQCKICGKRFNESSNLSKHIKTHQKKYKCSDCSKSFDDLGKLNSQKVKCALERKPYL
Outline: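 E-scores (a modified Wilcoxon-Mann-Whitney statistic) were assigned by the Universal PBM Analysis Suite to every ungapped eight-base word pooled with its reverse complement. The input came from universal all-10-mer Agilent arrays made double-stranded by primer extension and probed with GST-tagged yeast transcription factors at about 100-200 nM. Fluorescent anti-GST detected bound protein, and masliner normalised the scans.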

First: CGTTGAAC
Second: GGGTGGTA
The “PBM E-score” value of the first is lower: -0.11 for the first, 0.252 for the second.

Compared with ACAGGCCT, CGTAACAC is higher in “PBM E-score” value: -0.0521 for the first, -0.0261 for the second.

Compared with ACACGTAC, AGAGGCGA is lower in “PBM E-score” value: -0.0848 for the first, -0.298 for the second.

Compared with CAACGGTC, AGAGGCAA is lower in “PBM E-score” value: 0.19 for the first, -0.136 for the second.

Compared with GAGCAATC, GGAGGCCA is higher in “PBM E-score” value: -0.187 for the first, -0.112 for the second.

Going from GCCCCATA to ACCTTCTA, the “PBM E-score” value rises from -0.0925 to 0.304.

First: GCTAGGAA
Second: AGTGCTCG
The “PBM E-score” value of the first is higher: -0.00118 for the first, -0.133 for the second.

Compared with CCTACGCG, CCAACAGA is higher in “PBM E-score” value: -0.0918 for the first, -0.0498 for the second.

First: CAGAAAAA
Second: CACCTACC
The “PBM E-score” value of the first is higher: 0.203 for the first, 0.0874 for the second.

Going from ACACCGCT to AGCGGGGA, the “PBM E-score” value falls from -0.06 to -0.228.

Going from CGGGTTTA to ATCTCGAG, the “PBM E-score” value falls from 0.205 to -0.0636.

Compared with GGGCTAAA, CATTCTAG is lower in “PBM E-score” value: -0.0367 for the first, -0.0521 for the second.

First: ACGACCAA
Second: CTCGTGAC
The “PBM E-score” value of the first is higher: 0.117 for the first, 0.0578 for the second.

First: CCTGGCCG
Second: GGACCTAC
The “PBM E-score” value of the first is higher: -0.0362 for the first, -0.118 for the second.

First: CACAGAGG
Second: ACACTTCG
The “PBM E-score” value of the first is higher: 0.113 for the first, -0.00099 for the second.

First: CCTATGCA
Second: AAATTTCT
The “PBM E-score” value of the first is lower: -0.142 for the first, -0.0616 for the second.

Compared with GCTTGGAA, AGGTAATG is higher in “PBM E-score” value: -0.0685 for the first, 0.311 for the second.

Going from AATTTAAA to ATTAAATA, the “PBM E-score” value rises from 0.0611 to 0.195.

Going from ATACAGGC to CCTGCAAC, the “PBM E-score” value rises from -0.234 to 0.0235.

Going from ATTATCAG to AGATGTAC, the “PBM E-score” value rises from -0.125 to -0.0494.

First: AGGGTAAC
Second: CGATGAGA
The “PBM E-score” value of the first is higher: 0.405 for the first, 0.0165 for the second.

Going from CCTATGTA to AGCAGGTA, the “PBM E-score” value rises from -0.0355 to 0.0269.

Going from GTATAGAC to CGGCGCTA, the “PBM E-score” value falls from 0.0398 to -0.213.

First: CGCAAACG
Second: CAAACCGG
The “PBM E-score” value of the first is lower: 0.00749 for the first, 0.0523 for the second.

First: ACCAAGGC
Second: GCAGATGA
The “PBM E-score” value of the first is higher: -0.0597 for the first, -0.0886 for the second.

Compared with GCTCTGAA, ATCCGGGA is higher in “PBM E-score” value: -0.305 for the first, -0.194 for the second.

First: AGTGTCCG
Second: ATAGTCAC
The “PBM E-score” value of the first is lower: -0.0651 for the first, 0.116 for the second.

Going from AGGATATC to AAGGTCCC, the “PBM E-score” value rises from 0.0735 to 0.152.

First: ACGGTAAC
Second: GCCACAAA
The “PBM E-score” value of the first is higher: 0.364 for the first, 0.221 for the second.

First: ACGAATCT
Second: CAGACCGA
The “PBM E-score” value of the first is higher: -0.0209 for the first, -0.0449 for the second.

Going from CTTGATCA to CGATTCAA, the “PBM E-score” value falls from 0.139 to -0.161.

Going from CATGTGGA to ATCACACC, the “PBM E-score” value rises from -0.0576 to -0.01.

First: GGGCTCAC
Second: ACCAGGTC
The “PBM E-score” value of the first is lower: -0.245 for the first, 0.126 for the second.

First: AGACGAAC
Second: CTCTACAC
The “PBM E-score” value of the first is higher: 0.0722 for the first, -0.036 for the second.

First: GGTCGGAA
Second: AGGACGTA
The “PBM E-score” value of the first is higher: 0.163 for the first, -0.169 for the second.

First: ATGCACAG
Second: CAGTCAAC
The “PBM E-score” value of the first is higher: -0.0553 for the first, -0.218 for the second.

Going from AAAACAGG to AGCCTGAG, the “PBM E-score” value falls from 0.11 to -0.0458.

First: CAGTTTTC
Second: AGACAACC
The “PBM E-score” value of the first is lower: 0.00131 for the first, 0.31 for the second.

Going from AATGTCAA to CATTAAGA, the “PBM E-score” value rises from -0.0621 to 0.0427.

Going from AGCAGCCC to ACATAAAG, the “PBM E-score” value rises from -0.254 to 0.0237.

First: GGGCTCTA
Second: TATGCAGA
The “PBM E-score” value of the first is lower: -0.158 for the first, -0.0265 for the second.

Going from ACAGGTTC to AAGTAGGA, the “PBM E-score” value falls from -0.12 to -0.158.

Going from CGATACCG to CCCATCGA, the “PBM E-score” value rises from 0.0831 to 0.126.

Going from CGATATGA to GTAAGTGA, the “PBM E-score” value rises from -0.105 to 0.0969.

First: ACTTGCTA
Second: CTCCTCCC
The “PBM E-score” value of the first is higher: -0.115 for the first, -0.2 for the second.

Going from AATTGCTA to CCTTACGC, the “PBM E-score” value falls from 0.0693 to -0.00775.

First: ACCCCCGT
Second: CATATTAC
The “PBM E-score” value of the first is lower: -0.206 for the first, 0.117 for the second.

Compared with AATTACTA, AAGATACG is lower in “PBM E-score” value: 0.058 for the first, -0.147 for the second.

Going from CGCATAAG to AGTTGCTG, the “PBM E-score” value falls from -0.0381 to -0.12.

Compared with CATACTCC, GCTGAAAC is higher in “PBM E-score” value: -0.0252 for the first, -0.00548 for the second.

Going from ACGGGGCA to AGACTCGC, the “PBM E-score” value falls from -0.143 to -0.212.

First: AATGCTGG
Second: ATGAGTCG
The “PBM E-score” value of the first is higher: -0.0452 for the first, -0.245 for the second.

Compared with GACAGCTA, AAACCAAG is higher in “PBM E-score” value: -0.278 for the first, 0.153 for the second.

Compared with CCCGCGGA, ATTCTGGG is higher in “PBM E-score” value: -0.0476 for the first, 0.0872 for the second.

Going from ATACCAAC to AATTGCTG, the “PBM E-score” value falls from 0.18 to 0.115.

Going from ACACGGCT to GGAGACGA, the “PBM E-score” value rises from -0.0652 to -0.032.

Compared with CCCTTGCA, GCCATGAA is higher in “PBM E-score” value: -0.00874 for the first, 0.195 for the second.

First: CATACGCG
Second: ATGCGGCC
The “PBM E-score” value of the first is higher: 0.0471 for the first, -0.00897 for the second.

Going from GTCAGACA to TAACCCCA, the “PBM E-score” value rises from -0.149 to 0.424.

Going from GCATCGAC to CGGCCACC, the “PBM E-score” value rises from -0.175 to 0.194.

Going from CCAATGAC to GATCGTTA, the “PBM E-score” value falls from 0.077 to -0.237.

Going from ATCAGCTG to CCAGGCGA, the “PBM E-score” value falls from 0.035 to -0.217.

Going from CTTCCGAA to AGGACACA, the “PBM E-score” value rises from 0.0635 to 0.16.

First: GATGACGA
Second: TCCTAAAA
The “PBM E-score” value of the first is lower: -0.0906 for the first, -0.0365 for the second.

Going from CACCAGAA to CGCCAGAA, the “PBM E-score” value falls from -0.00435 to -0.0069.

Going from CATTCCAA to TTAGGAAA, the “PBM E-score” value rises from -0.0693 to 0.102.

Going from ACCGGCCC to AAGCTCCA, the “PBM E-score” value falls from -0.0813 to -0.23.

First: CTAGAAGA
Second: AGGAATAC
The “PBM E-score” value of the first is lower: -0.102 for the first, 0.0547 for the second.

Compared with TGGGGCAA, GCGGTCGA is higher in “PBM E-score” value: -0.169 for the first, 0.0793 for the second.

Compared with CGGGTATC, ATACACAG is lower in “PBM E-score” value: 0.252 for the first, 0.0559 for the second.

Going from GGGTTATA to CATAAAGC, the “PBM E-score” value falls from 0.474 to -0.159.

Going from ATATTTAG to GATCCGGA, the “PBM E-score” value falls from 0.079 to -0.144.

Compared with ATAGCATC, AATTTCGC is higher in “PBM E-score” value: -0.129 for the first, 0.0262 for the second.

Going from ATACGGCG to CAGGACAA, the “PBM E-score” value rises from -0.0742 to 0.198.

Going from GAAAATCA to CCGTACGA, the “PBM E-score” value falls from -0.0693 to -0.144.

Compared with CCGGCCGC, CCCACGTA is lower in “PBM E-score” value: -0.00756 for the first, -0.0742 for the second.

Compared with AGTCATGC, CTTCACCA is higher in “PBM E-score” value: -0.3 for the first, -0.176 for the second.

Going from ACACTCAG to AGGAAATA, the “PBM E-score” value rises from 0.019 to 0.128.

Compared with ACAGTGTC, TGTCAAAA is higher in “PBM E-score” value: -0.0968 for the first, 0.153 for the second.

First: ATTTTGGA
Second: CACTTCCC
The “PBM E-score” value of the first is higher: 0.115 for the first, -0.0107 for the second.

Compared with AATTGTAT, AAAAAAGG is higher in “PBM E-score” value: -0.157 for the first, 0.28 for the second.

First: CTGAAATC
Second: CTCTAGGA
The “PBM E-score” value of the first is higher: -0.086 for the first, -0.227 for the second.

First: AGCCCTGA
Second: AGGAATCA
The “PBM E-score” value of the first is lower: -0.131 for the first, 0.116 for the second.

First: CCTTTGCG
Second: AATTCTAT
The “PBM E-score” value of the first is higher: 0.158 for the first, -0.0635 for the second.

First: GGCCCGTA
Second: GAGTCGTA
The “PBM E-score” value of the first is higher: -0.0563 for the first, -0.142 for the second.

Going from ACTGAATC to GTTGTGTA, the “PBM E-score” value rises from -0.0382 to 0.138.
